Source: PubChem BioAssay AID504832 (National Center for Advancing Translational Sciences (NCATS), 2011)
The whole screen tested about 310,000 compounds, of which about 18,000 (5.8%) were called active. This list was built around the results that the source calls inconclusive (neither active nor inactive); the mix of calls is not that of the screen. Calls follow the shape of the dose curve; as a rule, active = well fitted inhibition curve with a large enough effect; inconclusive = small, poorly fitted or top-dose-only effect, or another doubt; inactive = no such curve, though single readings can be large or run the other way. Potencies of inconclusive entries are left out as doubtful fits.

Assay: Primary qHTS for delayed death inhibitors of the malarial parasite plastid, 48 hour incubation
Conditions: P. falciparum luciferase growth in erythrocytes; series mostly up to 28.7 µM
Procedure, shortened: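 Luminescence readout; reporter = integrated firefly luciferase in P. falciparum. RBC culture at 2% hematocrit, 0.1% parasitemia final, 37 C/5% CO2; decreased signal taken as growth inhibition.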
Potency is read from the fitted curve at half-maximal effect; tags tell the direction and shape of the fitted curve.

Row | SMILES | Potency
1 | CCC1C(=O)n2nc(-c3ccccc3)cc2N=C1C (stereo unspecified) | inconclusive [inhibitor, single point]
2 | Cc1ccccc1-c1nn(-c2ccc(F)cc2F)cc1CNCCN(C)C | inconclusive [inhibitor, partial curve]
3 | CC[n+]1c(/C=C2/C=C(C)CC(C)(C)C2)sc2ccc(OC)cc21 | active: 0.37 µM
4 | Cc1ccccc1OCC(=O)Nc1c2c(nn1C(C)(C)C)CS(=O)(=O)C2 | inactive
5 | O=C(Nc1ccncc1)c1cc(S(=O)(=O)N2CCOCC2)ccc1Cl | inconclusive [inhibitor, single point]
6 | CC(O)[C@@]1(O)CC[C@H]2[C@@H]3CC[C@H]4C[C@@H](O)CC[C@]4(C)C3=CC[C@@]21C (stereo partly specified) | inconclusive [inhibitor, partial curve, poor fit]
7 | COc1cccc(CC(NC(C)=O)C(=O)NC2CCN(c3nc(C)cc(C)c3C#N)CC2)c1OC (stereo unspecified) | inconclusive [inhibitor, partial curve]
8 | NCCSc1c(-c2ccc(Cl)cc2)[nH]c2ccccc12 | inconclusive [inhibitor, single point]
9 | Oc1ccc(C[C@@H]2CNCCN2CC2(c3ccccc3)CC2)cc1 | inconclusive [inhibitor, single point]
10 | O=[N+]([O-])c1ccccc1OCCN1CCOCC1 | inactive
11 | NC(=O)c1c(NC(=O)c2ccccc2)sc2c1CCN(Cc1ccccc1)C2 | inactive
12 | C#CCOc1cc(C2C3=C(COC3=O)Nc3cc4c(cc32)OCO4)ccc1OC (stereo unspecified) | inconclusive [inhibitor, full curve, poor fit]
13 | CC(c1ccccc1)N(CCC(c1ccccc1)C1CCOC(C)(C)C1)C(=O)c1ccco1 (stereo unspecified) | active: 11.7 µM
14 | CN(CC(=O)Nc1ccccc1Cl)C(=O)COC(=O)c1ccc(S(=O)(=O)C(F)F)cc1 | inconclusive [inhibitor, single point]
15 | COc1ccc(Cl)cc1N(CC(=O)Nc1ccc2c(c1)OCCO2)S(C)(=O)=O | inactive
16 | CCOC(=O)Cc1csc(NC(=O)c2cccnc2)n1 | inactive
17 | COc1ccc(Nc2nc(N3CCN(S(=O)(=O)N(C)C)CC3)nc3ccccc23)cc1 | active: 10.4 µM
18 | COC(=O)C1=C(c2ccc(Cl)c(C(F)(F)F)c2)C[C@@H]2CC[C@H]1N2C(=O)NCCOc1ccc(OC)cc1 | inconclusive [inhibitor, partial curve]
19 | Cc1noc(/C=C/N(C)C)c1S(=O)(=O)N1CCCC(C(=O)NC(C)c2ccccc2)C1 (stereo unspecified) | inconclusive [inhibitor, full curve]
20 | COc1ccc(N2C3=C(CC4=C2CC(C)(C)CC4=O)C(=O)CC(C)(C)C3)cc1 | active: 9.28 µM
21 | CCN(CC)c1ccc(/C=N/NC(=O)c2cccc(N3CCCC3=O)c2)cc1 | inconclusive [inhibitor, partial curve, poor fit]
22 | Cc1ccc(NC(=O)CCN2CCCCC2)cc1 | inactive
23 | COc1ccc2[nH]c(C)c(CCNCc3cc(OC)c(OC)c(OC)c3)c2c1 | inconclusive [inhibitor, full curve]
24 | COC(=O)C1=CN(Cc2ccc(OC)c(OC)c2)C=C(C(=O)OC)C1c1ccccc1F | inconclusive [inhibitor, partial curve, poor fit]

Row | SMILES | Potency
25 | COc1ccc2ccc(OCC(=O)N3c4ccccc4NC(=O)CC3C)cc2c1 (stereo unspecified) | inconclusive [inhibitor, single point]
26 | CCN(CC)C(=S)Nc1ccc(C(=O)OC)cc1 | inactive
27 | Cc1sc2nc(C3CC3)nc(NCCNS(=O)(=O)c3ccccc3)c2c1C | active: 9.28 µM
28 | CN(C(=O)COC(=O)/C=C/c1cccs1)c1c(N)n(Cc2ccccc2)c(=O)[nH]c1=O | inactive
29 | CCOC(=O)C1=C(c2ccccc2)O/C(=C(/C#N)C(F)(F)F)S1 | active: 9.28 µM
30 | COc1ccc(-c2csc(N3CCOCC3)n2)cc1OC | inactive
31 | CCc1ccc(/C=c2\s/c(=C\C(=O)C(C)(C)C)[nH]c2=O)cc1 | active: 3.29 µM
32 | COCCNC(=O)C(c1ccc(C)cc1)N(C(=O)CCC(=O)Nc1ccccn1)c1cccc(C)c1 (stereo unspecified) | inactive
33 | Cn1c(N2CCN(C(c3ccccc3)c3ccccc3)CC2)nc2c1c(=O)[nH]c(=O)n2C | inconclusive [inhibitor, single point]
34 | O=C(Nc1nc2ccccc2n1CCN1CCCCC1)c1ccco1 | inactive
35 | CCCCn1c(SCC(=O)N2CCOCC2)nc2c1c(=O)n(C)c(=O)n2C | inactive
36 | CCCCC(=O)N/N=C/c1ccc(N2CCOCC2)c([N+](=O)[O-])c1 | inactive
37 | COc1cc(Cl)c(CN2CCCC(CO)(Cc3ccccc3)C2)cc1OC (stereo unspecified) | inconclusive [inhibitor, partial curve]
38 | CN1CCN(C2=Cc3ccc(Cl)cc3Sc3ccc(F)cc32)CC1 | active: 13.1 µM
39 | COc1cccc(-c2nc(N3CC(C)CC(C)C3)c3ccccc3n2)c1O (stereo unspecified) | inconclusive [inhibitor, partial curve, poor fit]
40 | O=C(N/N=C/c1cc([N+](=O)[O-])ccc1Cl)c1cc(-c2ccccc2)nc2ccccc12 | inconclusive [inhibitor, single point]
41 | Cc1ccc(C)c(N2CCN(C(=O)C3CCN(S(=O)(=O)c4cccc5nsnc45)CC3)CC2)c1 | inconclusive [inhibitor, partial curve, poor fit]
42 | COc1cc(NC(=O)c2nccnc2N)cc(C(=O)Nc2cccc(C(F)(F)F)c2)c1 | inconclusive [inhibitor, single point]
43 | Cc1cc(C)nc(N/N=C/C2=C(N3CCOCC3)C(=C/c3ccccc3)/CC2)n1 | inconclusive [inhibitor, single point]
44 | CC1Cc2ccccc2N1S(=O)(=O)c1cccc(C(=O)NCC(c2ccco2)N2CCCC2)c1 (stereo unspecified) | active: 11.7 µM
45 | CN=c1scc(-c2ccc(OC)cc2)n1/N=C(\C)c1cccnc1 | inactive
46 | C=C1SC(Nc2c(C)cccc2C)=NC12CCCCC2 | inconclusive [inhibitor, full curve, poor fit]
47 | Cc1nn(-c2ccccc2)c2c1C(=O)N(Cc1ccccc1)C(=O)C(C)(C)C2 | inconclusive [inhibitor, single point]
48 | CCc1cccc(NC(=O)C2CCCN(S(=O)(=O)c3ccc4[nH]c(=O)ccc4c3)C2)c1 (stereo unspecified) | inconclusive [inhibitor, partial curve]

Row | SMILES | Potency
49 | CSc1ccccc1-c1n[nH]c(=S)o1 | active: 13.1 µM
50 | Oc1ccc2ccccc2c1CN1CC=C(c2ccccc2)CC1 | inconclusive [inhibitor, full curve]
51 | COc1ccc(CCN(C)C2CCCN(C(=O)c3ccnn3C)C2)cc1OC (stereo unspecified) | inconclusive [inhibitor, partial curve, poor fit]
52 | Cc1ccccc1S(=O)(=O)N1[C@@H](c2ccc(F)cc2)C(C(=O)O)=CC[C@H]1c1ccc(Cl)cc1 | inconclusive [inhibitor, single point]
53 | COc1ccc(/C=C2/N=C(SC3CCOC3=O)N(c3cccc(OC)c3)C2=O)cc1 (stereo unspecified) | inconclusive [inhibitor, full curve]
54 | CC(/C=N/NC(=O)c1cnccn1)=C\c1ccco1 | inactive
55 | CCC(Sc1nc(N)cc(=O)[nH]1)C(=O)Nc1cc(C)on1 (stereo unspecified) | inactive
56 | O=C(N/N=C/c1ccc2nccnc2c1)c1ccc(Br)cc1 | inconclusive [inhibitor, partial curve, poor fit]
57 | CN(C1(C)CCS(=O)(=O)C1)S(=O)(=O)c1ccc2ccccc2c1 (stereo unspecified) | inactive
58 | O=C(Nc1ccc(F)cc1)N1CCc2ccccc2C1 | inactive
59 | N/C(=N/OC(=O)c1ccccc1Cl)c1ncc([N+](=O)[O-])s1 | inconclusive [inhibitor, single point]
60 | Cc1ccc(C(=O)CSc2nnc(CNc3nc(-c4ccccc4)cs3)n2C)cc1 | inconclusive [inhibitor, single point]
61 | Cc1c(C(=O)N2CCN(S(=O)(=O)c3ccccc3)CC2)oc2ccccc12 | inconclusive [inhibitor, single point]
62 | O=C(NCCCCCCNC(=O)C1CCCC1)C1CCCC1 | inactive
63 | CC(C)NC(=O)CSc1ncccc1-c1nc2ccccc2[nH]1 | inactive
64 | COc1ccccc1CN1CCNC(=O)C1CC(=O)N(C)Cc1ccon1 (stereo unspecified) | inactive
65 | Cc1ccc(NC(=O)Nc2ccccc2F)cc1S(=O)(=O)N1CCOCC1 | inconclusive [inhibitor, single point]
66 | COc1ccc(CCN2C(=S)N(c3ccc(Cl)cc3)C(=O)C2CC(N)=O)cc1OC (stereo unspecified) | active: 10.4 µM
67 | O=C(COc1cc(F)ccc1[N+](=O)[O-])N1N=C(c2cccs2)CC1c1ccco1 (stereo unspecified) | inconclusive [inhibitor, single point]
68 | CCC(=O)Nc1cccc(C(=O)/C=C/c2cc(Br)ccc2OC)c1 | inconclusive [inhibitor, single point]
69 | CC(C)(C)c1nc2ccc(NS(=O)(=O)c3ccc(F)c(F)c3F)cc2[nH]1 | inconclusive [inhibitor, partial curve, poor fit]
70 | Cn1c(=O)c2c(nc(N3CCN(c4ccccn4)CC3)n2Cc2ccccc2Cl)n(C)c1=O | active: 9.28 µM
71 | CCCCN(C)C(=O)c1nc2ccccn2c1CN1CCC[C@H]1CO | inactive
